Laboratory results as given in PubChem BioAssay (NCATS).
Inconclusive results, whose numbers are uncertain, are shown with a selection of clear calls. For part of these data: Potencies of inconclusive entries are doubtful fits and often do not repeat. Calls of active or inactive are those of the source. Calls come from the whole dose curve; as a rule, active = well fitted curve in the direction sought with a large enough effect; inconclusive = small, poorly fitted or top-dose-only effect, or another doubt; inactive = no such curve, though single readings can be large; an effect the other way counts as inactive or inconclusive.

Key:
[1] = system: Zika virus NS2B-NS3 protease (linked construct); test: Primary screen NINDS Rhodamine qHTS for Zika virus inhibitors (AID 1347160); details: purified NS2B-NS3 protease, Rhodamine110 substrate fluorescence; series mostly up to 112 µM; note: potency is the fitted concentration of half-maximal effect; nearly all actives have a fitted effect of over 55% in size
Method in brief: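 Purified NS2B-NS3 protease with the NS2B hydrophilic domain joined by a flexible linker (25 nM) in 10 mM Tris-HCl pH 8.0, 0.01% Tween 20, preincubated 15 min at RT with compound; Rhodamine110 peptide substrate 1.5 µM; fluorescence change over 15 min; 4-parameter Hill fit.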

[2] = OV-KATE Cancer Cell Toxicity qHTS against the NCATS CANVASS Library (AID 1347345); details: OV-KATE cells viability, CellTiter-Glo luminescence, 72 h; series mostly up to 38.3 µM; note: % is set by controls: 0 for no effect and ±100 for the full control effect
Method in brief: (§1)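 ATP content after 72 h treatment, detected by CellTiter-Glo luminescence (15min room-temperature development), reflects cell viability. Wells contained 1000 cells and received compounds at 11 concentrations.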

[3] = UWB1.289-WTBRCA1 Cancer Cell Toxicity qHTS against the NCATS CANVASS Library (AID 1347354); details: UWB1.289-WTBRCA1 viability, CellTiter-Glo luminescence, 72 h; series mostly up to 38.3 µM; note: potency is the fitted concentration of half-maximal effect
Method in brief: (§2)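 Luminescent ATP read-out (CellTiter-Glo, 15min at room temperature) measures survival after cells face an 11-point compound series for 72 hours at 37 degrees C/5% CO2.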

[4] = HEK-293 Cancer Cell Toxicity qHTS against the NCATS CANVASS Library (AID 1347355); details: HEK-293 viability, CellTiter-Glo luminescence, 72 h; series mostly up to 46.1 µM; note: potency is the fitted concentration of half-maximal effect; nearly all actives have a fitted effect of over 65% in size
Method in brief: as §2

[5] = qHTS for Hypoxia signaling pathway (HIF-1) antagonists against the NCATS CANVASS Library (AID 1347374); details: HRE-bla ME-180 cells, HIF-1 beta-lactamase reporter, CoCl2; series mostly up to 38.3 µM; note: nearly all actives have a fitted effect of over 60% in size; note: potency is the fitted concentration of half-maximal effect;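 for activity change, negative = inhibition: HRE-bla ME-180 cells stimulated with cobalt chloride to stabilize HIF-1alpha; % is set by controls: 0 for no effect and ±100 for the full control effect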
Method in brief: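 HRE-bla ME-180 cells in medium with 0.5% dialyzed FBS received compounds (11-point series) plus CoCl2 (60 uM addition stock) for 17 hrs at 37C. Beta-lactamase activity read with CCF4 (405 nm ex, 460/530 nm em); CellTiter-Glo viability measured in same wells.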

[6] = qHTS for Antimalaria activity screened against the NCATS CANVASS Library (AID 1347380); note: nearly all actives have a fitted effect of over 40% in size; note: potency is the fitted concentration of half-maximal effect;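 for activity change, negative = inhibition: Plasmodium falciparum strain Dd2 asexual parasites grown in red blood cells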; details: P. falciparum Dd2 growth, SYBR Green fluorescence, 72 h; series mostly up to 28.7 µM
Method in brief: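 Dd2 strain, infected erythrocytes 2.5% Hct final / 0.3% parasitemia. 11-pt qHTS titration, 72 h, 37C, 5% O2, 5% CO2. Lysis buffer + SYBR Green, 18 h, fluorescence 485/535 nm.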

[7] = qHTS for activators of Nrf2/ARE signaling pathway screened against the NCATS CANVASS Library (AID 1347391); details: ARE-bla HepG2, beta-lactamase reporter, 16 h; series mostly up to 46.1 µM; note: nearly all actives have a fitted effect of over 60% in size; note: potency is the fitted concentration of half-maximal effect
Method in brief: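 Plate ARE-bla HepG2 cells at 2000/well and let them settle 5 h. Pin-transfer compounds in DMSO, incubate 16 h at 37C. Load CCF4 for 2 h at room temperature and read blue/green fluorescence.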

[8] = qHTS for inhibitors of ER calcium dysfunction: SERCaMP assay screened against the NCATS CANVASS Library (AID 1347393); details: SH-SY5Y GLuc-SERCaMP (Gaussia luciferase released on ER calcium loss) secretion, thapsigargin, luminescence; activity change, negative = inhibition: at 76.6 µM (top of the series) unless noted; note: nearly all actives have a fitted effect of over 40% in size; note: potency is the fitted concentration of half-maximal effect;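 for activity change, negative = inhibition: % is set by controls: 0 for no effect and ±100 for the full control effect; lower secreted reporter signal means inhibitor of ER calcium depletion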
Method in brief: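 qHTS in SH-SY5Y reporter cells: 16 h compound pretreatment, 4 h thapsigargin, then secreted Gaussia luciferase measured by luminescence.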

[9] = UWB1.289 Cancer Cell Toxicity qHTS against the NCATS CANVASS Library (AID 1347347); details: UWB1.289 viability, CellTiter-Glo luminescence, 72 h; series mostly up to 38.3 µM; note: nearly all actives have a fitted effect of over 60% in size; note: potency is the fitted concentration of half-maximal effect
Method in brief: as §1

[10] = Secretion counterscreen for inhibitors of the SERCaMP assay screened against the NCATS CANVASS Library (AID 1347390); details: SH-SY5Y constitutive GLuc secretion, luminescence, 20 h; activity change, negative = inhibition: at 76.6 µM (top of the series);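 note: light from luciferase secreted into medium read as a measure of general secretion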; note: potency is the fitted concentration of half-maximal effect; for activity change, negative = inhibition: % is set by controls: 0 for no effect and ±100 for the full control effect
Method in brief: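 SH-SY5Y-GLuc STOP cells; 4 h attach; cpds 0.001 - 77 uM (qHTS, 11 pts), 20 h 37C/5% CO2; coelenterazine in glow buffer; luminescence, 5 s exposure.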

[11] = OV-SAHO Cancer Cell Toxicity qHTS against the NCATS CANVASS Library (AID 1347348); details: OV-SAHO viability, CellTiter-Glo luminescence, 72 h; activity change, negative = cytotoxicity: at 38.3 µM (top of the series); note: nearly all actives have a fitted effect of over 55% in size; note: potency is the fitted concentration of half-maximal effect; for activity change, negative = cytotoxicity: % is set by controls: 0 for no effect and ±100 for the full control effect
Method in brief: as §1

[12] = A2780 Cisplatin Sensitive Ovarian Cancer Cell Toxicity qHTS against the NCATS CANVASS Library (AID 1347353); details: A2780 ovarian cancer viability, ATPLite luminescence, 72 h; series mostly up to 46.1 µM; note: nearly all actives have a fitted effect of over 60% in size; note: potency is the fitted concentration of half-maximal effect
Method in brief: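 Luminescent ATP content (ATPLite, 10 min at room temperature) served as the read-out after cells had been exposed to compounds for 72 hours at 37 °C. Dosing followed an 11-point concentration series.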

[13] = Panc-1005 Cancer Cell Toxicity qHTS against the NCATS CANVASS Library (AID 1347349); details: Panc-1005 viability, CellTiter-Glo luminescence, 72 h; series mostly up to 38.3 µM
Method in brief: as §1

[14] = KB-8-5-11 Cancer Cell Toxicity qHTS against the NCATS CANVASS Library (AID 1347364); details: KB-8-5-11 MDR cells viability, CellTiter-Glo, 72 h; activity change, negative = toxicity: at 46.1 µM (top of the series); series mostly up to 46.1 µM; note: potency is the fitted concentration of half-maximal effect; nearly all actives have a fitted effect of over 75% in size
Method in brief: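 Plate 500 KB-8-5-11 cells per well in DMEM + 10% FBS, add compounds by pin transfer, incubate 72 hr at 37C. Add CellTiter-Glo, wait 10 minutes at room temperature, read luminescence.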

[15] = SW1088 Cancer Cell Toxicity qHTS against the NCATS CANVASS Library (AID 1347350); details: SW1088 viability, CellTiter-Glo luminescence, 72 h; series mostly up to 38.3 µM; note: nearly all actives have a fitted effect of over 75% in size
Method in brief: as §1

[16] = U-118MG Cancer Cell Toxicity qHTS against the NCATS CANVASS Library (AID 1347351); details: U-118MG viability, CellTiter-Glo luminescence, 72 h; series mostly up to 38.3 µM; note: potency is the fitted concentration of half-maximal effect
Method in brief: as §1

[17] = Viability qHTS for inhibitors of the SERCaMP assay screened against the NCATS CANVASS Library (AID 1347400); details: SH-SY5Y SERCaMP cells viability, CellTiter-Glo, 48 h; series mostly up to 92.2 µM; note: nearly all actives have a fitted effect of over 70% in size; note: potency is the fitted concentration of half-maximal effect
Method in brief: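 SH-SY5Y SERCaMP MJH297 cells, 1000/well; 4 h settle, 37C/5% CO2; pin-transferred cpds; 48 h; CellTiter-Glo lum. Pos ctrl bortezomib 0.0001 - 4.6 uM.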

[18] = HPAF-II Cancer Cell Toxicity qHTS against the NCATS CANVASS Library (AID 1347346); details: HPAF-II viability, CellTiter-Glo ATP luminescence, 72 h; series mostly up to 38.3 µM; note: % is set by controls: 0 for no effect and ±100 for the full control effect; nearly all actives have a fitted effect of over 55% in size
Method in brief: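 Luminescence from CellTiter-Glo, added after 72 h compound exposure and a 15 min room-temperature incubation, served as the viability readout. HPAF-II cells (1000/well) received an 11-point concentration series.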

[19] = qHTS for Activators of p53 Stress Response Pathway screened against the NCATS CANVASS Library (AID 1347388); details: p53RE-bla HCT-116, beta-lactamase reporter, 16 h; series mostly up to 46.1 µM; note: potency is the fitted concentration of half-maximal effect
Method in brief: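 p53RE-bla HCT-116 cells (4000/well) were plated 5 h at 37C, exposed to compounds for 16 h at 37C over an 11-point concentration series, then loaded with CCF4 for 2 h at room temperature; 460/530 nm emission ratio read.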

[20] = qHTS for inhibitors of Wild type Zika virus screened against the NCATS CANVASS Library (AID 1347396); details: Vero cells, Zika virus CPE, CellTiter-Glo, 72 h; series mostly up to 45.9 µM; note: potency is the fitted concentration of half-maximal effect
Method in brief: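 Vero 766 (African green monkey) cells, 1000 per well, attached overnight, then compounds were added in an 11-point series before wild-type Zika virus infection. After 72 h at 37C, cell viability was read as CellTiter Glo luminescence.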
Tags give direction and shape of the fitted curve.

COc1ccc(CCCc2cc(O)c(OC)c(O)c2)c(O)c1O
active: Potency [1] 11 µM
inactive: Potency [2] | Potency [3] | Potency [5]
inconclusive: Potency [4] 37.2 µM [cytotoxic, partial curve, poor fit] | Potency [6] 0.0033 µM [cytotoxic, full curve] | Potency [7] 16.6 µM [activator, partial curve] | Potency [8] 34.3 µM [inhibitor, partial curve]

C[C@@H]1O[C@@H](O[C@@H]2[C@@H](O)[C@H](O[C@@H]3[C@@H](O)[C@@H](O)C(O[C@H]4[C@H](OC(=O)[C@]56CCC(C)(C)C[C@H]5C5=CCC7[C@@]8(C)C[C@H](O)[C@H](O[C@@H]9C[C@H](CO)[C@@H](O)[C@H](O)[C@H]9O)[C@@](C)(CO)C8[C@H](O)C[C@@]7(C)[C@]5(C)CC6)OC[C@H](O)[C@@H]4O)O[C@H]3C)OC[C@H]2O)[C@H](O)[C@H](O)[C@H]1O (some centres undefined)
active: Potency [1] 24.3 µM
inconclusive: Potency [9] 14.6 µM [cytotoxic, single point] | Potency [6] 0.0012 µM [cytotoxic]
inactive: Potency [5] | Potency [10]

O=C1CC(c2ccc(O)cc2)Oc2cc(O)cc(O)c21 (centres undefined)
inactive: Potency [11] | Potency [12] | Potency [10]
inconclusive: Potency [1] 55.3 µM [inhibitor, single point] | Potency [6] 0.0037 µM [cytotoxic, full curve, poor fit] | Potency [8] 24.3 µM [inhibitor, partial curve]

COC(=O)c1cccc2oc(-c3cccc4oc(-c5c(C)cccc5O)nc34)nc12
inconclusive: Potency [1] 62.1 µM [inhibitor, partial curve, poor fit] | activity change, negative = cytotoxicity [11] -32% [cytotoxic] | Potency [13] 11.9 µM [cytotoxic, partial curve] | Potency [3] 10.6 µM [cytotoxic, partial curve] | Potency [14] 1.18 µM [cytotoxic, full curve] | Potency [6] 0.0047 µM [cytotoxic, full curve] | Potency [8] 27.2 µM [inhibitor, partial curve]
active: Potency [9] 5.29 µM | Potency [12] 3.32 µM | Potency [5] 0.941 µM | Potency [7] 1.86 µM

C=C1C[C@]23C=CC(=O)[C@@](C)(CCCC(C)C(=O)N[C@@H](CO)C(=O)O)[C@@H]2C[C@@H]1CC3 (some centres undefined)
inactive: Potency [9] | Potency [15] | Potency [8] | Potency [17]
inconclusive: Potency [1] 55.3 µM [inhibitor, partial curve, poor fit] | Potency [16] 29.8 µM [cytotoxic, single point]

C/C=C/[C@H]1[C@H]2C(=O)c3c(O)c(C)c(O)c(C)c3[C@]1(C(=O)O)C(=O)C=C2C
inconclusive: Potency [1] 55.3 µM [inhibitor, partial curve]
inactive: Potency [18] | Potency [15] | Potency [6] | Potency [7]

O=C1CC(c2ccc(O)cc2)Oc2ccccc21 (centres undefined)
inconclusive: Potency [1] 39.2 µM [inhibitor, partial curve] | Potency [12] 23.5 µM [cytotoxic, single point] | Potency [3] 26.5 µM [cytotoxic, single point] | Potency [4] 37.2 µM [cytotoxic, partial curve, poor fit] | Potency [19] 23.4 µM [activator, partial curve, poor fit] | Potency [10] 21.6 µM [inhibitor, single point] | Potency [7] 23.4 µM [activator, single point] | Potency [17] 42.8 µM [cytotoxic, partial curve]
active: Potency [9] 3.75 µM
inactive: Potency [6]

C=C1C[C@@]23C=CC(=O)[C@@](C)(CCC(=O)Nc4c(OC5O[C@H](CO)[C@@H](O)[C@H](O)[C@H]5O)ccc(C(=O)O)c4O)C2C[C@@H]1CC3 (some centres undefined)
inactive: Potency [11] | Potency [12] | Potency [3] | Potency [6] | Potency [8]
inconclusive: Potency [17] 7.6 µM [cytotoxic, single point]
active: Potency [1] 39.2 µM

C=C(C)C(=O)O[C@H]1C[C@@]2(C)OC(=CC2=O)/C(C)=C\[C@H]2OC(=O)C(=C)[C@H]12
active: Potency [11] 5.29 µM | Potency [13] 1.88 µM | Potency [3] 10.6 µM | Potency [14] 2.96 µM | Potency [5] 1.67 µM | Potency [10] 3.05 µM | Potency [8] 0.216 µM
inconclusive: Potency [1] 49.3 µM [inhibitor, partial curve, poor fit] | Potency [16] 6.68 µM [cytotoxic, partial curve, poor fit] | Potency [7] 1.86 µM [activator, partial curve] | Potency [20] 36.9 µM [inhibitor, single point]
